# ± gives the standard deviation of the averaged measurements. The list shows a part of the results.
# System: PfAP2-I AP2 domain 3 (GST-tagged)
# Assay: gcPBM binding intensity (ln(normalized median fluorescence intensity)); higher = stronger DNA binding
# Procedure, shortened: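 GST-tagged P. falciparum DNA-binding domains produced in E. coli were incubated for 1 h on an Agilent 4 × 180k array of primer-extended double-stranded 36-bp intergenic genomic probes with negative controls. Binding intensity is the highest Masliner-normalised natural-log median intensity across replicate spots of either probe orientation, with bound protein detected by Alexa488 anti-GST antibody at 488 nm.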
row,Sequence,gcPBM binding intensity (ln)
1,ATAAAATAAAATAAAAGTACATAAATATATATATAT [XGTACX_site6110],9.22 ± 0.085
2,TTTTTTTTTCTTTGCACACAGATAACTTGAAATTTG [CACACA_site2185],9.21 ± 0.38
3,ATAAGGATCAGACACAAACACACATATATATATATA [CACACA_site558],9.36 ± 0.34
4,AAATAATTCATATGTTGTACAGTAATTAAATTTTCT [XGTACX_site6343],7.68 ± 0.58
5,ATAATTAATCCAAAATGTACTTACATTTTATATGAA [XGTACX_site8888],7.72 ± 0.45
6,TGTTTTGTTATTTTTATTTATATAAATAAAGCTATA [GTGCAC_negctrl_site88],7.84 ± 0.55
7,ATATATATATTATATGCACACTAATAAGACTATTTA [CACACA_site5880],9.66 ± 0.11
8,CATAAATACAGTAACACACACAAAAAAATATGAATA [CACACA_site6066],7.75 ± 0.56
9,ATATATATATTTTATTGTACAAAAAAAAAAAAAAAA [XGTACX_site6803],8.85 ± 0.21
10,TTGTTATGCATTGGTTGTACATAAGTATAAGTAATT [XGTACX_site5401],8.12 ± 0.4
11,CCATTATACACAATATGTACATATATATAATCATTT [XGTACX_site7942],8.04 ± 0.43
12,AAAAAAAAAATATGTACACACATATAAAATACATAA [CACACA_site6869],7.89 ± 0.27
13,ATAGGATTCTCAAAGTGTACTTGTCTACTGTAGTTT [XGTACX_site4202],7.62 ± 0.49
14,GAGGAAAAAAAAAAAAGTACATTATATAAGAAAATT [XGTACX_site2610],7.84 ± 0.32
15,TTAAATATTTATATTTGTACACAATCAATCATACAC [XGTACX_site5793],8.2 ± 0.11
16,AATTATAATAATAATAGTACATAAGTATATAAATAA [XGTACX_site2400],7.69 ± 0.62
17,TCTTTCTAAATCTTACAAATTACTAAAATATTTATA [CACACA_negctrl_site87],7.49 ± 0.57
18,AAAAAAAAAAAAAAAAGTACAAATTTAAAAATGTGT [XGTACX_site112],8.68 ± 0.35
19,TTGGTTTCTTGTTTTTGTACCCATAATTTGTAATAT [XGTACX_site1248],8.42 ± 0.52
20,ATCACATTCCACGGTACACACTAAAAGAAAAATCAG [CACACA_site5907],8.29 ± 0.17
21,ATTTATATTTAATATACACACATTATTTTTTTATAT [CACACA_site574],7.88 ± 0.54
22,AGAGTACAAGTAAATACACACATATATATGAAAATA [CACACA_site1079],7.82 ± 0.55

row,Sequence,gcPBM binding intensity (ln)
1,CACATATATACACATACACACACACCCATACACCCA [CACACA_site8505],8.28 ± 0.12
2,TTTACATTTTAGGAAGTGCATATAATAAATACTATC,9.89 ± 0.21
3,TACATAAATACATACACACACATATAACCAATGTAG [CACACA_site5243],7.91 ± 0.4
4,TATAATATGACAAGAAGTACATATATTTACATATAT [XGTACX_site1571],7.54 ± 0.29
5,ATATAATATTTTAGAGTGCACCGATAACAATAAATA [GTGCAC_site9754],10.4 ± 0.17
6,AAAAGATAAAAAGAAGTGCATAATAGGAACAAATAT [GTGCAC_site9717],10.7 ± 0.24
7,TATATGTGGGTTTTTTTTATGTGTTTTTCTTTTTTT [CACACA_negctrl_site936],7.97 ± 0.49
8,CATTTCATTAATAAATGTACTTGTGAAGAGAAAAAG [XGTACX_site3115],7.89 ± 0.56
9,ACAAAATTTACAAAATGTACAAAATATACAAAATGT [XGTACX_site3543],7.61 ± 0.5
10,TGTTATTCTGCATATACACACAAATAACAATTTAAA [CACACA_site6943],8.43 ± 0.18
11,TAAGATATAAAAAATGTGCACATTAAAGTATTAATT,9.46 ± 0.45
12,TCTTATGATGGAATGTTAAATATTACATTTTGTTTA [TGCATGCA_negctrl_site503],7.32 ± 0.44
13,TTTATATAGAAACACACACACAAAAAAAAAAAAAAA [CACACA_site2646],8.11 ± 0.54
14,TTACAAAAAAAAAGGCGCGGATGGGGGCAATAGCAA [CACACA_negctrl_site238],9.38 ± 0.35
15,CAAAAAAAAAAAAAAACACACATTAAATTATAAAGA [CACACA_site2613],7.67 ± 0.32
16,TAATGTTTCAAAATTTAATATACTACAAATATTATA [TGCATGCA_negctrl_site336],7.17 ± 0.42
17,ATGAACATCCAATATACACACATATATATTTATATT [CACACA_site829],7.86 ± 0.65
18,TTCTACATGAAGTTATAAATTAATATTTTAATTTAT [XGTACX_negctrl_site134],7.24 ± 0.42
19,AATAAATAAATAAGTACACACATATAAATATAAATA [CACACA_site6271],7.91 ± 0.25
20,TACTTTATTTTTTATACACACACAATATGTATATAT [CACACA_site9184],8.05 ± 0.58
21,GTATTTCTTTAATATACACACACCAAAACAAAAAAA [CACACA_site579],8.13 ± 0.49
22,ATATATATATATATATATATAATAAAAGATCATTTA [XGTACX_negctrl_site371],9.4 ± 0.73

row,Sequence,gcPBM binding intensity (ln)
1,ATAATAAAAAGAAAAAGTACAAATGATTATGTTTGA [XGTACX_site3615],8.11 ± 0.81
2,CAAGTATTATATTGCGCATGCAAAGAAGGACACAAA [TGCATGCA_site1024],8.62 ± 0.47
3,TTATCTAGTACATACATACACACAACCATGTTATGA [CACACA_site3988],7.91 ± 0.39
4,TTACTTTTTTTTTTATGTACTTATATTTTTTACACT [XGTACX_site3503],8.17 ± 0.37
5,TATGAATACATTTGTTGTACTTAAATTTCCTTTATT [XGTACX_site5374],7.62 ± 0.52
6,AAATAATTTATGCATACACACATATATATATATATA [CACACA_site4020],9.52 ± 0.58
7,TATAAATATCTGAATTGTACAGGTGAAAAAAAAAAT [XGTACX_site1867],8.04 ± 0.62
8,TTTTTTATTATTATTATTTTTTATGTATAATAATGT [CACACA_negctrl_site631],7.59 ± 0.45
9,TAGATATATAAATACACACACATACACAAAAAAAAA [CACACA_site7652],8.21 ± 0.45
10,GTACAATCATATACTACATGCAGTTTTTTTTATTGA [TGCATGCA_site230],8.01 ± 0.62
11,AAATAAATACATAATACATGCATATTTAATATATAG [TGCATGCA_site135],7.93 ± 0.25
12,TTTTCTTTTTCTTGTACACACATAATATGGATGAAA [CACACA_site808],8.06 ± 0.42
13,AATTTTTTTTAATGATGTACTTTTTGAAAATAAACT [XGTACX_site4221],7.66 ± 0.5
14,ATATATATATATATTTATTCATATATTTTTTGTCTT [TGCATGCA_negctrl_site58],9.35 ± 0.57
15,TTTTTATTTTTTCAGTGTACATTTAAATTATCTTAT [XGTACX_site3905],8.16 ± 0.54
16,TAAAGAAACGCATCGACGCACACTACAAAATAAAAA [CACACA_site1348],8.14 ± 0.51
17,TTTTTCTTTCTATTTATCAATATTAAAAAAAAAAAA [CACACA_negctrl_site1629],7.8 ± 0.5
18,TTTTTATAATGATACATATATTATTTTATTCTTAAT [CACACA_negctrl_site124],7.37 ± 0.59
19,TATACATGTATATATTGTACATATGTTTTTTTTACA [XGTACX_site3300],7.69 ± 0.61
20,TTTTTTCAAATTTTCTTTTTTCTTTTGTTTTTTTTG [CACACA_negctrl_site380],7.29 ± 0.5
21,TTACTCATGAAAGATACACACATTCGTTATTTATAT [CACACA_site7517],7.63 ± 0.67
22,TAAATTATTATCCCCTCACACACAAAAATAAAAAGA [CACACA_site2886],8.56 ± 0.25

row,Sequence,gcPBM binding intensity (ln)
1,TATTTATAAACATACGCACACATTAATATATATATA [CACACA_site9314],9.14 ± 0.085
2,GAAGAAGTTTAAAAAGCACACAAAAAAAAAAAAAAA [CACACA_site9088],8.26 ± 0.66
3,CACAAAATAAATTAAACACACAACATCATATATGTA [CACACA_site846],7.49 ± 0.42
4,CTTGTAGATATAAAATGTACAAAAATAAATTGCACA [XGTACX_site4409],9.94 ± 0.7
5,AGATATTCTACTATGTGTACATATATATATATAATT [XGTACX_site5060],8.1 ± 0.18
6,ATTATTATTAATCTTGTGCACATATATTTTAATTAG,10.6 ± 0.23
7,TATAAACGTATAATATGTACACACACATATATACAA [XGTACX_site1686],7.75 ± 0.27
8,ATTATATAGAATTGTACATGCGAATTGTATAACGAT [TGCATGCA_site125],7.89 ± 0.7
9,TATTTTTTTTTTTTTTTTTTTTTTATATATACATAT [CACACA_negctrl_site23],7.45 ± 0.54
10,AAAAAAAAAAAAAAAAATATATTTATGAAATAAAAA [TGCATGCA_negctrl_site262],8.63 ± 0.042
11,AATGGATATTTCTTTATATATATCTTATTTGATTAT [XGTACX_negctrl_site284],7.32 ± 0.45
12,TTTCTATTCCATTCAACACACAAAAATGTATGCTTT [CACACA_site1072],7.87 ± 0.49
13,TTTTTTTTTTTTTTGGTGCGTTTATATATAAATATA,10.4 ± 0.86
14,GGAATTATATGAAATAAACACACATATGTAATATTA [CACACA_site8586],7.53 ± 0.67
15,AAAATCTAATATAATGCACACATAAAAAAAAAATCA [CACACA_site8871],11 ± 0.68
16,TACATCGACCTATGTACATGCAAATTATTTTTATTT [TGCATGCA_site182],7.92 ± 0.36
17,CTTTTAATATGTGTAGTGCATTTTTTTTTTTTTTTT [GTGCAC_site9727],10.19 ± 0.035
18,AAAAAAAAAAAAAACACACACAACACCCATACCTTA [CACACA_site3621],8.45 ± 0.45
19,GTCCTTCATCATATTTAACACACAGAGAAAAAGCGG [CACACA_site7979],8.4 ± 0.2
20,TAAATACAGAAACACACACACAAATATATACATACA [CACACA_site2880],7.64 ± 0.52
21,AATTCTTTTTTCAACACACACACACTAGAAAATATA [CACACA_site5681],8.1 ± 0.43
22,TTTATATATTATTAATGTACAAAATTTTTATTGCAT [XGTACX_site3329],7.95 ± 0.39

# Source: the supplement of paper PMC11417369
